Drawing on patent US20140341881A1, this text covers % Inhibition and Percentage inhibition for one substance.

The target in this assay is trypsin (human) (UniProt P07477). The experiment in a line: cell-based or functional assay.

In the case of “AATWT (recombinant wild type alpha-1-antitrypsin) (a stretch of the chain, chain not printed)”, the % Inhibition – broadly, how much of the control response was suppressed – amounted to 100% and the Percentage inhibition stood at 100%.
